Results are given in words; binding and its absence hold for the method and conditions named. Binding seen in cells or lysates may run through a third protein. Some results given as binding are weak or reduced against the parent protein; the word gives no strength. For some assays here: Tags and fused reporters may be left off the sequences shown.
T1: Igo1-Pk3 (endogenous Igo1 tagged at the C-terminus with 3 Pk epitopes), from RIM15 wild type cells (budding yeast) (UniProt P53897)
T1 sequence (chain, phosphoserine at 64 (Rim15-dependent)): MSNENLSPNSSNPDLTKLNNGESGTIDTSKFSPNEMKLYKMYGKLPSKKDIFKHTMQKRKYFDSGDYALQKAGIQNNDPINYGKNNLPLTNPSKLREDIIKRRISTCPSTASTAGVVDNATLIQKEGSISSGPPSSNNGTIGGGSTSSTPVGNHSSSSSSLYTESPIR

Chains of the proteins cited; added tags and fusions are not shown.
UniProt P38903: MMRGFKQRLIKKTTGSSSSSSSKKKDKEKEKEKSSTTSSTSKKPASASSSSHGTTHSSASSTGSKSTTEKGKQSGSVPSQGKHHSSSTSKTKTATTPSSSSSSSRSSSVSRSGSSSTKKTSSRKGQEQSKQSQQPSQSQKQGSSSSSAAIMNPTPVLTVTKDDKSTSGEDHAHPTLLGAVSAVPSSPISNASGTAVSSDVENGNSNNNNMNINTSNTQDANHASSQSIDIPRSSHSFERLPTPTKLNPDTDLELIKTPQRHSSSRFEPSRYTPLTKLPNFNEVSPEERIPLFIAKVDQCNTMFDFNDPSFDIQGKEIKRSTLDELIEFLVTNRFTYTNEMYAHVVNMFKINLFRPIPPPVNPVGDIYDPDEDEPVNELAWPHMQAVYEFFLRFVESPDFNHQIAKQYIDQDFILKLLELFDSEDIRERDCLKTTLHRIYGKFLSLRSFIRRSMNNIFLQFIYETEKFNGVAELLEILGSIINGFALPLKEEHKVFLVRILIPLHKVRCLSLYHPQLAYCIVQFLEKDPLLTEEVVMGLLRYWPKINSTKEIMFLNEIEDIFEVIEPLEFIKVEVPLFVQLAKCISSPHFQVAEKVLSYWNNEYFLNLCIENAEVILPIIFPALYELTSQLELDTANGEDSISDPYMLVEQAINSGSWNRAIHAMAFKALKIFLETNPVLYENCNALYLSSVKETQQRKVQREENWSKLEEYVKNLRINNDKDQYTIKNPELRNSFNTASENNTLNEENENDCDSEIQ
UniProt P23594: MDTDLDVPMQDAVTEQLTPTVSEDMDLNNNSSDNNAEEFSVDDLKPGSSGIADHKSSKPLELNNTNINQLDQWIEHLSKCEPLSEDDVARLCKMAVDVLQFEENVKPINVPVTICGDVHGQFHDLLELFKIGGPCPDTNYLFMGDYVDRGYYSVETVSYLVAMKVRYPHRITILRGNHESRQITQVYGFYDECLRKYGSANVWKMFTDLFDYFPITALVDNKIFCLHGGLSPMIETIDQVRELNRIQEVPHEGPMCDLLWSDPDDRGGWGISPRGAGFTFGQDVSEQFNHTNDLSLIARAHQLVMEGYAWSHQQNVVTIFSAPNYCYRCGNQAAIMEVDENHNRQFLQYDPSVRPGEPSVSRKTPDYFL

T2: HA-Cdc55 expressed at endogenous levels from the CDC55 promoter (budding yeast) (UniProt Q00362)
T2 sequence: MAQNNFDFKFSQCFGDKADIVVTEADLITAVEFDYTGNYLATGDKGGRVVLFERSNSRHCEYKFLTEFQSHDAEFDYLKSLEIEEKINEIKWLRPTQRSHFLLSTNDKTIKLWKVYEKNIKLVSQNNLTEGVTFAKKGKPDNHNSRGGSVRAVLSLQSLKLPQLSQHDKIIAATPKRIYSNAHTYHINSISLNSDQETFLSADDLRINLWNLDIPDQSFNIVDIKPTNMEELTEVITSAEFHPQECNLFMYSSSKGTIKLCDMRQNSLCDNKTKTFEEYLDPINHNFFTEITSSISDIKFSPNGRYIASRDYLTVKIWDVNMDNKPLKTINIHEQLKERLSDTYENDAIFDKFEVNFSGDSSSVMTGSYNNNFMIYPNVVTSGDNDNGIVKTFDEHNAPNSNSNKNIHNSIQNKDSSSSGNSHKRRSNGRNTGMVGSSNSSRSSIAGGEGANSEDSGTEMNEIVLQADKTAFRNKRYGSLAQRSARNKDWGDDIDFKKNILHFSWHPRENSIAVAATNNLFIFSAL

T3: Igo1-S64A-myc8 (budding yeast) (UniProt P53897)
T3 sequence: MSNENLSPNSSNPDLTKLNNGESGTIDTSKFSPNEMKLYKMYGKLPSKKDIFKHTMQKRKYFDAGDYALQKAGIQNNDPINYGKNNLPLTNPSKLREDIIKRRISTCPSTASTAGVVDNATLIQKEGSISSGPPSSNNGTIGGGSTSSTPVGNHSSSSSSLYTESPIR

T4: Igo1-myc8 (budding yeast) (UniProt P53897)
T4 sequence (chain, phosphoserine at 64 (shown by Phos-tag gels, lost in rim15Δ and S64A controls)): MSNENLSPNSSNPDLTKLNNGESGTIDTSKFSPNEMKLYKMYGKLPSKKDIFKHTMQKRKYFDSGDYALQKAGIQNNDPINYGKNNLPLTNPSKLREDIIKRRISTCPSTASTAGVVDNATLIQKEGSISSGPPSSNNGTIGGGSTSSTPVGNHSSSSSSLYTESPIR

T5: Zds1-Pk6 (budding yeast) (UniProt P50111)
T5 sequence: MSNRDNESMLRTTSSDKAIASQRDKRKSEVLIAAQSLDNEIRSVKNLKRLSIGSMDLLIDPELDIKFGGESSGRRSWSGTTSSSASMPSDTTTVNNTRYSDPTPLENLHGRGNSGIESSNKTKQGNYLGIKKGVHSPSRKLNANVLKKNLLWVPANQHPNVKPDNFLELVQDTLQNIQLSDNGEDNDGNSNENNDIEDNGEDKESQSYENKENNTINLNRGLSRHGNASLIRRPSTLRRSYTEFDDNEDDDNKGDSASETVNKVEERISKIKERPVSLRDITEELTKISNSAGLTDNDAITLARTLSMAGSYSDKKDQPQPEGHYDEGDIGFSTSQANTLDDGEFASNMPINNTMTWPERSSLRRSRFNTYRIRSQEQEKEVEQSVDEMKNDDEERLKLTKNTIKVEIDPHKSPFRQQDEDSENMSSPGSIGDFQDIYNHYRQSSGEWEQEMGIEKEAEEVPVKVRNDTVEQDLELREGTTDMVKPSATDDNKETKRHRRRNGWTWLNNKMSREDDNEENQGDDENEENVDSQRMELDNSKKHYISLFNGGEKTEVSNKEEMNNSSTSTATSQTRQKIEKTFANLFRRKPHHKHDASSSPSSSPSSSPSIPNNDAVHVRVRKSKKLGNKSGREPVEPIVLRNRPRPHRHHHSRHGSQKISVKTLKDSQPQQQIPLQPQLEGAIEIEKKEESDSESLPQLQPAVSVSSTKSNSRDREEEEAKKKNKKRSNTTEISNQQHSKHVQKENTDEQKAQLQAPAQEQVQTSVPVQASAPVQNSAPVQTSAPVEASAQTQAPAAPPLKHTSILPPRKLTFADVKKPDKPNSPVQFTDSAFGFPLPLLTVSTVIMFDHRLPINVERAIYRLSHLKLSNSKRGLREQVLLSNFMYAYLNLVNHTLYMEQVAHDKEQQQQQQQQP


Legend:
[1] = target: T1, Igo1-Pk3 (endogenous Igo1 tagged at the C-terminus with 3 Pk epitopes), from RIM15 wild type cells (budding yeast); experiment: co-IP; anti-Pk antibody pre-adsorbed to protein A-sepharose, cleared extracts of yeast cells (cycling, released from alpha factor at 25°C, or hydroxyurea; wild type, rim15Δ, igo1Δ igo2Δ or zds1Δ zds2Δ); lysis buffer 50 mM Tris-Cl pH 7.5, 150 mM NaCl, 10% glycerol, 1 mM EDTA, 1% NP40; western blot
[2] = target: T2, HA-Cdc55 expressed at endogenous levels from the CDC55 promoter (budding yeast); experiment: co-IP; HA-tagged Cdc55 immunoprecipitated with anti-HA (12CA5) cross-linked to BSA-coated protein A-Sepharose from whole-cell extracts of wild type or igo1Δ igo2Δ yeast; immunoblot for Pph21 and Tpd3
[3] = target: T3, Igo1-S64A-myc8 (budding yeast); experiment: co-IP; co-immunoprecipitation of HA3-Cdc55 with Igo1-myc8 or Igo1-S64A-myc8 from yeast cells, in the presence or absence of RIM15; which of the two was precipitated is not stated
[4] = target: T4, Igo1-myc8 (budding yeast); experiment: as above
[5] = target: T5, Zds1-Pk6 (budding yeast); experiment: co-IP; anti-Pk antibody pre-adsorbed to protein A-sepharose, cleared extracts of yeast cells (cycling, released from alpha factor at 25°C, or hydroxyurea; wild type, rim15Δ, igo1Δ igo2Δ or zds1Δ zds2Δ); lysis buffer 50 mM Tris-Cl pH 7.5, 150 mM NaCl, 10% glycerol, 1 mM EDTA, 1% NP40; western blot

Row | Molecule | binding [1] | binding [2] | binding [3] | binding [4] | binding [5]
1 | Rts1-HA3 (from UniProt P38903 1-757) | no binding | – | – | – | –
2 | Pph21 (from UniProt P23594 1-369) (enzyme) | binds | binds | – | – | –
3 | HA3-Cdc55 (protein, UniProt Q00362 1-526) MAQNNFDFKFSQCFGDKADIVVTEADLITAVEFDYTGNYLATGDKGGRVVLFERSNSRHCEYKFLTEFQSHDAEFDYLKSLEIEEKINEIKWLRPTQRSHFLLSTNDKTIKLWKVYEKNIKLVSQNNLTEGVTFAKKGKPDNHNSRGGSVRAVLSLQSLKLPQLSQHDKIIAATPKRIYSNAHTYHINSISLNSDQETFLSADDLRINLWNLDIPDQSFNIVDIKPTNMEELTEVITSAEFHPQECNLFMYSSSKGTIKLCDMRQNSLCDNKTKTFEEYLDPINHNFFTEITSSISDIKFSPNGRYIASRDYLTVKIWDVNMDNKPLKTINIHEQLKERLSDTYENDAIFDKFEVNFSGDSSSVMTGSYNNNFMIYPNVVTSGDNDNGIVKTFDEHNAPNSNSNKNIHNSIQNKDSSSSGNSHKRRSNGRNTGMVGSSNSSRSSIAGGEGANSEDSGTEMNEIVLQADKTAFRNKRYGSLAQRSARNKDWGDDIDFKKNILHFSWHPRENSIAVAATNNLFIFSAL | binds | – | binds weakly | binds | binds
4 | Tap42 (protein, UniProt Q04372 1-366) MASVTEQFNDIISLYSTKLEHTSLRQDSPEYQGLLLSTIKKLLNLKTAIFDRLALFSTNETIDDVSTASIKFLAVDYYLGLLISRRQSNDSDVAQRQSMKLIYLKKSVESFINFLTLLQDYKLLDPLVGEKLGNFKDRYNPQLSELYAQPKNNKDLSGAQLKRKEKIELFQRNKEISTKLHCLELELKNNDEDHDHDELLRELYLMRLHHFSLDTINNIEQNLFECEMLSNFLKNSVHEVKSSGTQIRKESNDDDSTGFTDKLENINKPLIDKKGQVLRNFTLVDKRQQLQQKVRGYGQYGPTMSVEEFLDKEFEEGRVLQGGEEPEQAPDEENMDWQDRETYKAREWDEFKESHAKGSGNTMNRG | binds | – | – | – | –

Source: article PMC3701715
